Data: the supplement of paper PMC4967469
A lower IC50 marks a more sensitive line; where the fit passes the top or lowest dose, that dose stands as a limit. AUC, from the same fit, is the share of area under the viability curve across the 256-fold dose range; it is 1 without any effect and falls as sensitivity rises. For some assays here: The top dose, if marked as inferred, was calculated from the reported fits. For some assays here: Where an entry number is given, a second screen of the drug exists; the two often differ.

Columns and labels:
Test in all cases: Viability of human cancer cell lines after 72 h of drug (GDSC screen)
CHIR-99021 = compound: Cc1cnc(-c2cnc(NCCNc3ccc(C#N)cn3)nc2-c2ccc(Cl)cc2Cl)[nH]1 [CHIR-99021]
Method: (§1)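 Human cancer cell lines in 384-well plates, medium with 10% serum, drug for 72 h over a 256-fold dose range (nine 2-fold or five 4-fold steps up to the top dose). Adherent lines were fixed and stained with the nucleic acid dye Syto60, suspension lines read with resazurin; signal relative to control wells, capped at 0 and 100%. One two-parameter sigmoid per drug and line, fitted in a mixed model over all curves with the slope shared within a line.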

CP466722 = compound: COc1cc2ncnc(-n3nc(-c4ccccn4)nc3N)c2cc1OC [CP466722]; details: top dose 16 µM; top dose inferred
Method: as §1

Cytarabine = compound: Nc1ccn([C@@H]2O[C@H](CO)[C@@H](O)[C@@H]2O)c(=O)n1 [Cytarabine]; details: top dose 2 µM
Method: as §1

KU-55933 = compound: O=c1cc(-c2cccc3c2Sc2ccccc2S3)oc(N2CCOCC2)c1 [KU-55933]; details: top dose 10 µM
Method: as §1

GSK269962A = compound: CCn1c(-c2nonc2N)nc2cnc(Oc3cccc(NC(=O)c4ccc(OCCN5CCOCC5)cc4)c3)cc21 [GSK269962A]; details: top dose 5 µM; screen: GDSC drug entry 1192; top dose inferred
Method: as §1

ABT-888 = compound: C[C@]1(c2nc3c(C(N)=O)cccc3[nH]2)CCCN1 [ABT-888]; details: top dose 5 µM; top dose inferred
Method: as §1

ABT-869 = compound: Cc1ccc(F)c(NC(=O)Nc2ccc(-c3cccc4[nH]nc(N)c34)cc2)c1 [ABT-869]; details: top dose 1.024 µM; top dose inferred
Method: as §1

(5Z)-7-Oxozeaenol = compound: COc1cc(O)c2c(c1)/C=C/C[C@H](O)[C@H](O)C(=O)/C=C\C[C@H](C)OC2=O [(5Z)-7-Oxozeaenol]; details: top dose 10 µM; top dose inferred
Method: as §1

Zibotentan = compound: COc1nc(C)cnc1NS(=O)(=O)c1cccnc1-c1ccc(-c2nnco2)cc1 [Zibotentan]; details: top dose 20 µM; top dose inferred
Method: as §1

QL-X-138 = compound: C=CC(=O)Nc1cc(-n2c(=O)ccc3cnc4ccc(-c5cn[nH]c5)cc4c32)ccc1C [QL-X-138]; details: top dose 10.24 µM; top dose inferred
Method: as §1

MPS-1-IN-1 = compound: COc1cc(N2CCC(O)CC2)ccc1Nc1cc(Nc2ccccc2S(=O)(=O)C(C)C)c2cc[nH]c2n1 [MPS-1-IN-1]; details: top dose 20 µM; top dose inferred
Method: as §1

Thapsigargin = compound: C/C=C(/C)C(=O)O[C@H]1C(C)=C2[C@H]([C@@H]1OC(=O)CCCCCCC)[C@@](C)(OC(C)=O)C[C@H](OC(=O)CCC)[C@@]1(O)[C@H]2OC(=O)[C@@]1(C)O [Thapsigargin]; details: top dose 0.512 µM; top dose inferred
Method: as §1

[1] = top dose 2.56 µM, screen: GDSC drug entry 154
[2] = top dose 10 µM, screen: GDSC drug entry 1241, top dose inferred

Cell Line | AUC (CHIR-99021; [1]) | IC50 (CHIR-99021; [1]) [µM] | AUC (CHIR-99021; [2]) | IC50 (CHIR-99021; [2]) [µM] | AUC (CP466722) | IC50 (CP466722) [µM] | AUC (Cytarabine) | IC50 (Cytarabine) [µM] | AUC (KU-55933) | IC50 (KU-55933) [µM] | AUC (GSK269962A) | IC50 (GSK269962A) [µM] | AUC (ABT-888) | IC50 (ABT-888) [µM] | AUC (ABT-869) | IC50 (ABT-869) [µM] | AUC ((5Z)-7-Oxozeaenol) | IC50 ((5Z)-7-Oxozeaenol) [µM] | AUC (Zibotentan) | IC50 (Zibotentan) [µM] | AUC (QL-X-138) | IC50 (QL-X-138) [µM] | AUC (MPS-1-IN-1) | IC50 (MPS-1-IN-1) [µM] | AUC (Thapsigargin) | IC50 (Thapsigargin) [µM]
OSC-20 (head and neck, adherent) | 0.982 | > 2.56 | 0.98 | > 10 | 0.827 | 12.3 | 0.826 | 1.53 | 0.918 | > 10 | 0.942 | > 5 | 0.955 | > 5 | 0.976 | > 1.02 | 0.703 | 2.62 | 0.981 | > 20 | 0.747 | 3.82 | 0.919 | > 20 | 0.34 | 0.0105
OV-90 (ovary, adherent) | 0.98 | > 2.56 | 0.979 | > 10 | 0.798 | 10.2 | 0.85 | > 2 | 0.971 | > 10 | 0.926 | > 5 | 0.962 | > 5 | 0.977 | > 1.02 | 0.875 | > 10 | 0.981 | > 20 | 0.84 | 10.2 | 0.921 | > 20 | 0.205 | 0.00322
OVISE (ovary, adherent) | 0.971 | > 2.56 | 0.897 | > 10 | 0.828 | 14.5 | 0.891 | > 2 | 0.895 | > 10 | 0.961 | > 5 | 0.951 | > 5 | 0.976 | > 1.02 | 0.627 | 1.58 | 0.979 | > 20 | 0.743 | 4.1 | 0.958 | > 20 | 0.608 | 0.0701
OVKATE (ovary, adherent) | 0.979 | > 2.56 | 0.862 | > 10 | 0.862 | > 16 | 0.822 | > 2 | 0.975 | > 10 | 0.977 | > 5 | 0.978 | > 5 | 0.979 | > 1.02 | 0.946 | > 10 | 0.926 | > 20 | 0.849 | > 10.2 | 0.867 | > 20 | 0.788 | 0.42
OVMIU (ovary, adherent) | 0.953 | > 2.56 | 0.774 | 4.91 | 0.771 | 7.64 | 0.664 | 0.402 | 0.972 | > 10 | 0.922 | > 5 | 0.981 | > 5 | 0.976 | > 1.02 | 0.665 | 2.02 | 0.968 | > 20 | 0.696 | 2.64 | 0.886 | > 20 | 0.377 | 0.0135
OVTOKO (ovary, adherent) | 0.887 | > 2.56 | 0.911 | > 10 | 0.805 | 10.9 | 0.68 | 0.458 | 0.843 | > 10 | 0.714 | 1.51 | 0.962 | > 5 | 0.976 | > 1.02 | 0.659 | 1.96 | 0.976 | > 20 | 0.818 | 7.88 | 0.939 | > 20 | 0.461 | 0.0243
PA-TU-8902 (pancreas, adherent) | 0.983 | > 2.56 | 0.928 | > 10 | 0.838 | 13.6 | 0.774 | 0.924 | 0.951 | > 10 | 0.95 | > 5 | 0.983 | > 5 | 0.982 | > 1.02 | 0.447 | 0.437 | 0.979 | > 20 | 0.688 | 2.37 | 0.791 | 10.7 | 0.402 | 0.0164
PANC-02-03 (pancreas, adherent) | 0.979 | > 2.56 | 0.967 | > 10 | 0.918 | > 16 | 0.79 | 1.1 | 0.943 | > 10 | 0.932 | > 5 | 0.971 | > 5 | 0.973 | > 1.02 | 0.583 | 1.1 | 0.97 | > 20 | 0.875 | > 10.2 | 0.803 | 12.4 | 0.643 | 0.0863
PANC-03-27 (pancreas, adherent) | 0.977 | > 2.56 | 0.912 | > 10 | 0.803 | 7.36 | 0.797 | 0.877 | 0.964 | > 10 | 0.987 | > 5 | 0.978 | > 5 | 0.956 | > 1.02 | 0.642 | 1.5 | 0.987 | > 20 | 0.785 | 4.09 | 0.869 | 16.5 | 0.126 | 0.00231
PANC-04-03 (pancreas, adherent) | 0.976 | > 2.56 | 0.965 | > 10 | 0.944 | > 16 | 0.905 | > 2 | 0.942 | > 10 | 0.975 | > 5 | 0.975 | > 5 | 0.976 | > 1.02 | 0.72 | 3.89 | 0.972 | > 20 | 0.866 | > 10.2 | 0.967 | > 20 | 0.433 | 0.0188
